Laboratory results taken from patent US20240076343A1 (CEPHALON, published 2024).

T1: high affinity hIL-2 receptor (hIL-2Rαβγ) on NK-92 cells (human, UniProt P01589 22-272; P14784 27-551; P31785 23-369)
T1 sequence 1: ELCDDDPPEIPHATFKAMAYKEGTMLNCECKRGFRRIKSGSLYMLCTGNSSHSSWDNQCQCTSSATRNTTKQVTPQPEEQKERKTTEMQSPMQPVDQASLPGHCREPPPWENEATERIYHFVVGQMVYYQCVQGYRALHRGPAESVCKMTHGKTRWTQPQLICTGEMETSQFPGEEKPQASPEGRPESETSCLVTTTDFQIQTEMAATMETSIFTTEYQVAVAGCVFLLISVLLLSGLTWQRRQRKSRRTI
T1 sequence 2: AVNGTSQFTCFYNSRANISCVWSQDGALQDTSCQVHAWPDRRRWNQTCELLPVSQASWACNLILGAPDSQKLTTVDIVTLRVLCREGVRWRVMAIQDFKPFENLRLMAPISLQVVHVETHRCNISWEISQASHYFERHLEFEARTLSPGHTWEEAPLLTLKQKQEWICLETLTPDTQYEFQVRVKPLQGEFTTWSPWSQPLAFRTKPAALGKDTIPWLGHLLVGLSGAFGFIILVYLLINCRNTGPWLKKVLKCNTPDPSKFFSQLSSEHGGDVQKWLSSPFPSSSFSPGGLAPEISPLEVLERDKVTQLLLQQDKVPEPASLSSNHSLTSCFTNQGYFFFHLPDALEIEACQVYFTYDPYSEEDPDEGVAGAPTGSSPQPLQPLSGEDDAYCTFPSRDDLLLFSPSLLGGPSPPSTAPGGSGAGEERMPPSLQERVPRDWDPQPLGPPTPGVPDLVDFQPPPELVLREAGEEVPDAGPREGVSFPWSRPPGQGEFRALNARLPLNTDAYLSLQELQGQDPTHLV
T1 sequence 3: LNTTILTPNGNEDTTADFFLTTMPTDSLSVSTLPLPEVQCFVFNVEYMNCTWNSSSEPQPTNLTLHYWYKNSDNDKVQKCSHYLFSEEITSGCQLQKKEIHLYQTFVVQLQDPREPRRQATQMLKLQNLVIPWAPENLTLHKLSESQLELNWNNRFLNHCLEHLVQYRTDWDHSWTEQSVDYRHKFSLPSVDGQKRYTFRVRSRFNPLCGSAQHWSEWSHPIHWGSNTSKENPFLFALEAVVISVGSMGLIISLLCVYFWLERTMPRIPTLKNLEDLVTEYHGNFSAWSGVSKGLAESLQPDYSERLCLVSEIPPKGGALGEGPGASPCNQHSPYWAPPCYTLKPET

T2: intermediate affinity hIL-2 receptor (hIL-2Rβγ) on TF1+IL-2Rβ cells (human, UniProt P14784 27-551; P31785 23-369)
T2 sequence 1: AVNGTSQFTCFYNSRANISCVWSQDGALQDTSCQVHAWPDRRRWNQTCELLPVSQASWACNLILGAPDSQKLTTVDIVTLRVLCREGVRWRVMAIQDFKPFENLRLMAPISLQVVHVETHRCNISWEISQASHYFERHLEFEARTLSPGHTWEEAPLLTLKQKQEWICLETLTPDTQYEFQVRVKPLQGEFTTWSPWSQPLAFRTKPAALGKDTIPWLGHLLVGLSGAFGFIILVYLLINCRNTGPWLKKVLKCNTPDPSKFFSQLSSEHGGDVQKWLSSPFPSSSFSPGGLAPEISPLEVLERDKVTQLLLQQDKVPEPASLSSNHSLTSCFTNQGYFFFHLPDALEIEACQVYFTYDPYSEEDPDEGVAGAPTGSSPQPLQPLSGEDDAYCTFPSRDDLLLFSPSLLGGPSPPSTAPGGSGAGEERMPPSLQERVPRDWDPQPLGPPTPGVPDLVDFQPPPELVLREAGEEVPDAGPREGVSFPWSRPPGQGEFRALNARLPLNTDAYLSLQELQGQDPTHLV
T2 sequence 2: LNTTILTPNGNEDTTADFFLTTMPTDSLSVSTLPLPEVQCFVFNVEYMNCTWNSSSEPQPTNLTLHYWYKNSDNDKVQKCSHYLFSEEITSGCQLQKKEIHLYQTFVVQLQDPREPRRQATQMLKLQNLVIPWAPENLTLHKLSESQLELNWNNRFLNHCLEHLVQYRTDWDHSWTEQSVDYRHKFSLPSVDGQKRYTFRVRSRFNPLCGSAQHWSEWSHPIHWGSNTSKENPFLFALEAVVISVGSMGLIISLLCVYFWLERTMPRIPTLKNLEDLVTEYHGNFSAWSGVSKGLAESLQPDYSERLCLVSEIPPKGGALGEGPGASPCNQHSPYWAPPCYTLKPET

T3: high-affinity hIL-2 receptor (IL-2Rαβγ) (human, UniProt P01589 22-272; P14784 27-551; P31785 23-369)
T3 sequence 1: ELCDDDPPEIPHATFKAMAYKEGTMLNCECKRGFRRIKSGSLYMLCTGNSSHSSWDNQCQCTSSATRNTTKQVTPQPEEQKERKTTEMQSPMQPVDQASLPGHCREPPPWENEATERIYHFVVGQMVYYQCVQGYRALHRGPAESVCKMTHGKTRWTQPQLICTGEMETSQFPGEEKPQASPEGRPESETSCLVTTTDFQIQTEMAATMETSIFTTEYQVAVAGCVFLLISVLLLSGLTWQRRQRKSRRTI
T3 sequence 2: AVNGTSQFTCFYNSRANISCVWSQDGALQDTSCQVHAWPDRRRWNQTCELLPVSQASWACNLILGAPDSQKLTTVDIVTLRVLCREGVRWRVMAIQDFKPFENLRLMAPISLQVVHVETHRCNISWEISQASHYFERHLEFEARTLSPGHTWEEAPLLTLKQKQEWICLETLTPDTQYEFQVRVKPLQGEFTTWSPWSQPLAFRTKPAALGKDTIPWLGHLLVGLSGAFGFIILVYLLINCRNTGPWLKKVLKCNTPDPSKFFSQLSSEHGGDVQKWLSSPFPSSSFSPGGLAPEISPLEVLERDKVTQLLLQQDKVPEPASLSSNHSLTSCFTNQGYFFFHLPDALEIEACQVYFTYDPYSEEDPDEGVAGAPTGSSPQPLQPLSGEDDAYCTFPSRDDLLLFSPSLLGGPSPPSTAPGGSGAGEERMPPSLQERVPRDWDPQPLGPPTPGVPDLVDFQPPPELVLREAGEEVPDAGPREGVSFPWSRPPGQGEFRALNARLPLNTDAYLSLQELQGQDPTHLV
T3 sequence 3: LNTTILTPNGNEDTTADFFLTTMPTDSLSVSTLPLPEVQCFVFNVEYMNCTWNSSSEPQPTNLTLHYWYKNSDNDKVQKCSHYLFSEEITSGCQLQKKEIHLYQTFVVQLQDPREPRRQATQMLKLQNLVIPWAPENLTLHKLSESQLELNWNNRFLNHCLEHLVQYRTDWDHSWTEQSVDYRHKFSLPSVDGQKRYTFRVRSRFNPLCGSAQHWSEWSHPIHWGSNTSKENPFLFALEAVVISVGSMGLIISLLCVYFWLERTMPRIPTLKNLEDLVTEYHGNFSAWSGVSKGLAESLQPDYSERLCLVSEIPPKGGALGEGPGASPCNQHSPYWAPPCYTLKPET

T4: intermediate affinity hIL-2 receptor complex (IL-2Rβγ) (human, UniProt P14784 27-551; P31785 23-369)
T4 sequence 1: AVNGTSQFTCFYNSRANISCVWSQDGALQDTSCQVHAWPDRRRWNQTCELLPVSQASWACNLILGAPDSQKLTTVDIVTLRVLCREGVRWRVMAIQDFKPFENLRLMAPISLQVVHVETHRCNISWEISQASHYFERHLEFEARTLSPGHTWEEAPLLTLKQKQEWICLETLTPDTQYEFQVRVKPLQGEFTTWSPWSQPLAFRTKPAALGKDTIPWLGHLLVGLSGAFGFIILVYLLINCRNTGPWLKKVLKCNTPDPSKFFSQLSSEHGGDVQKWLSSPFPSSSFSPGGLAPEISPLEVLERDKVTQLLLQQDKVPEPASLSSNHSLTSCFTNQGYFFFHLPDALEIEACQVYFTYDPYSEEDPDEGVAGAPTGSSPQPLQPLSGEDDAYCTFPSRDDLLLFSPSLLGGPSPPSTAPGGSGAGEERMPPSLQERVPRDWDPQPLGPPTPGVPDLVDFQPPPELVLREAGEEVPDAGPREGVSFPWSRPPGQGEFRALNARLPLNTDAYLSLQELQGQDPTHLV
T4 sequence 2: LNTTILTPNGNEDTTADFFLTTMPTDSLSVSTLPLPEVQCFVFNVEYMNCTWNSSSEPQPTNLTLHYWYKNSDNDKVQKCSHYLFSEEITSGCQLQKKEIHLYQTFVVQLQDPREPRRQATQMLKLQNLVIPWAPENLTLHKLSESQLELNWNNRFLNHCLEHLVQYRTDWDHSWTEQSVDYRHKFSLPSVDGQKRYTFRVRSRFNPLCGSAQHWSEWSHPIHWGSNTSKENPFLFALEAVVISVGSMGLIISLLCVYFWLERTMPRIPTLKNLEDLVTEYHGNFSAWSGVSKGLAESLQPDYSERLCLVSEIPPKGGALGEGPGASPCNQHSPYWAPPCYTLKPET


Key:
Assay in all cases: cell-based or functional assay
[1] = target: T1, high affinity hIL-2 receptor …
[2] = target: T2, intermediate affinity hIL-2 receptor …
[3] = target: T3, high-affinity hIL-2 receptor (IL-2Rαβγ)
[4] = target: T4, intermediate affinity hIL-2 receptor …

Binder | Fold change from rhIL-2 (NK-92) [1] | Fold change from rhIL-2 (TF1 + IL-2Rβ) [2] | Fold change from rhIL-2 (NK-92), pSTAT5 titration [3] | Agonistic Activity (TF1 + IL-2Rβ), pSTAT5 titration [4] | Fold change from rhIL-2 (TF1 + IL-2Rβ), pSTAT5 titration [4]
1H3-hIgG1-L6-hIL-2 (D20A/R38E/C125A) (other) heavy: EVQLVESGGGLVQPGRSLKLSCAVSGFTFSDYAMAWVRQAPKKGLEWVATISYDGSRTYYRDSVKGRFTISRDNAKITLYLQMDSLRSEDTATYYCARHGSGYFDYWGQGVMVTVSS[not shown - human IgG1 constant region]SGGGGSAPTSSSTKKTQLQLEHLLLALQMILNGINNYKNPKLTEMLTFKFYMPKKATELKHLQCLEEELKPLEEVLNLAQSKNFHLRPRDLISNINVIVLELKGSETTFMCEYADETATIVEFLNRWITFAQSIISTLT light: DTVLTQSPALAVSPGERVTISCRASESVRTGVHWYQQKPGQQPKLLIYGASNLESGVPARFSGSGSGTDFTLTIDPVEADDTATYFCQQSWNDPFTFGSGTKLEIKRTVAAPSVFIFPPSDEQLKSGTASVVCLLNNFYPREAKVQWKVDNALQSGNSQESVTEQDSKDSTYSLSSTLTLSKADYEKHKVYACEVTHQGLSSPVTKSFNRGEC | > 10000 fold | ~2100 fold | – | – | –
1H3-hIgG1-L6-hIL-2 (D20A/R38E) (other) heavy: EVQLVESGGGLVQPGRSLKLSCAVSGFTFSDYAMAWVRQAPKKGLEWVATISYDGSRTYYRDSVKGRFTISRDNAKITLYLQMDSLRSEDTATYYCARHGSGYFDYWGQGVMVTVSS[not shown - about 450 residues with a human IgG1 Fc and changes] light: DTVLTQSPALAVSPGERVTISCRASESVRTGVHWYQQKPGQQPKLLIYGASNLESGVPARFSGSGSGTDFTLTIDPVEADDTATYFCQQSWNDPFTFGSGTKLEIKRTVAAPSVFIFPPSDEQLKSGTASVVCLLNNFYPREAKVQWKVDNALQSGNSQESVTEQDSKDSTYSLSSTLTLSKADYEKHKVYACEVTHQGLSSPVTKSFNRGEC | – | – | > 10000 fold | 50% | ~409 fold
